Results from doi:10.1101/2023.07.25.550453 (bioRxiv, 2023).
Read-outs that look alike come from different tables or passages of the source.

B1: full-length PHAX E9R (natural protein)
chain: not shown
B2: full-length PHAX W118E (natural protein)
chain: not shown

Legend:
[1] = target: T1, nuclear cap-binding complex (CBC: CBP80ΔNLS + CBP20), human (human, UniProt Q09161 20-790; P52298 1-156); assay: SEC
T1 sequence 1: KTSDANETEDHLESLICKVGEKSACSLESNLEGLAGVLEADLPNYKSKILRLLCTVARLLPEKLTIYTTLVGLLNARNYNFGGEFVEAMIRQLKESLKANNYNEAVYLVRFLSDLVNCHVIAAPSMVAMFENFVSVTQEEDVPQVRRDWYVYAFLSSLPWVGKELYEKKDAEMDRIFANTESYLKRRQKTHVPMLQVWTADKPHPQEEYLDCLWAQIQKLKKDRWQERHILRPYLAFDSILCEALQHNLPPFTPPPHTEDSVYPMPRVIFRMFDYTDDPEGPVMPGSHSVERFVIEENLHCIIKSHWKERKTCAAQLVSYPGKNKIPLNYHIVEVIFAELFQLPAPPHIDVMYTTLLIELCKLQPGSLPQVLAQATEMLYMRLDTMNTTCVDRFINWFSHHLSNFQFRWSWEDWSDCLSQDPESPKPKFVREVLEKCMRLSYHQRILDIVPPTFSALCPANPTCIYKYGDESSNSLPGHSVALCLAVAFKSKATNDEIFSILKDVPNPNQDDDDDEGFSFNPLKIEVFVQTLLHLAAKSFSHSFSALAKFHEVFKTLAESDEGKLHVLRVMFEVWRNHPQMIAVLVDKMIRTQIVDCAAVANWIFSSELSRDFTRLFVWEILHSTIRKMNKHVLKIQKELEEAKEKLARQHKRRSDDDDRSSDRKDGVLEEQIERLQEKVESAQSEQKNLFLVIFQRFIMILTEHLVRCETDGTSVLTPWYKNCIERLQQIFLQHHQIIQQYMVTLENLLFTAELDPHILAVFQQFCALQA
T1 sequence 2: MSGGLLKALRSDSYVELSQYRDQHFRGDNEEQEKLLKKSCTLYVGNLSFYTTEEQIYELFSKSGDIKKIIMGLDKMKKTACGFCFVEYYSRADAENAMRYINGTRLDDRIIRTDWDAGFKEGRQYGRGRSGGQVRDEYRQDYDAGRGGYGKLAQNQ

[2] = target: T1, nuclear cap-binding complex (CBC: …); assay: SEC; remark: listed apart in the source

Binder	binding result [1]	binding result [2]
B1	binds	
B2		binds
